# PubChem BioAssay AID504832 (National Center for Advancing Translational Sciences (NCATS), 2011)
# The campaign covered roughly 310,000 compounds. About 18,000 (5.8%) were called active. Inconclusive means that the source gave no clear call. Such entries were picked first, then a sample of the others. Calls come from the whole dose curve; as a rule, active = well fitted inhibition curve with a large enough effect; inconclusive = small, poorly fitted or top-dose-only effect, or another doubt; inactive = no such curve, though single readings can be large or run the other way. No potency is given beside an inconclusive call; the fits are too rough.
# Experiment: Primary qHTS for delayed death inhibitors of the malarial parasite plastid, 48 hour incubation
# Settings: P. falciparum luciferase growth in erythrocytes; series mostly up to 28.7 µM
# Summary of the method: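 Firefly luciferase activity from engineered P. falciparum reports growth; inhibitors lower the luminescent signal. Cultures contained 2% hematocrit erythrocytes at 0.1% final parasitemia.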
# Potency is the fitted concentration of half-maximal effect; tags give direction and shape of the fitted curve.
row,Structure (SMILES),Potency
1,Cn1c(=O)c2c(ncn2CC(O)CNc2ccc(F)cc2)n(C)c1=O (stereo not given),"inconclusive [inhibitor, full curve, poor fit]"
2,Cc1ccc(OCCCC(=O)NC(C)c2ccccc2)c(C)c1 (stereo not given),"inconclusive [inhibitor, single point]"
3,CC1(C)SC(=S)N(/N=C/c2ccccc2)C1N(O)C(=O)Nc1ccc([N+](=O)[O-])cc1 (stereo not given),"inconclusive [inhibitor, single point]"
4,CCCCNC(=O)CCCCCn1c(=O)[nH]c2cc(OC)c(OC)cc2c1=O,"inconclusive [inhibitor, partial curve, poor fit]"
5,Clc1ccc(Cc2ccc(SCc3ccccc3)nn2)c(Cl)c1,inactive
6,CN1CCc2[nH]c3ccc(C(=O)NN)cc3c2C1,"inconclusive [inhibitor, partial curve]"
7,CCOC(=O)c1sc2nc(CSc3ccccc3)nc(NCCN(C)C)c2c1C,"inconclusive [inhibitor, single point]"
8,Cn1c(CCNC(=O)c2ccccc2F)nnc1SCC(=O)Nc1nncs1,inactive
9,CC1Cc2nc(SCC(=O)NCc3ccccc3)n(Cc3ccccc3)c(=O)c2S1 (stereo not given),"inconclusive [inhibitor, partial curve]"
10,c1ccc(-c2nc3ccccn3c2NC2CCCC2)nc1,active: 10.4 µM
11,Cc1ccc(Cn2nnnc2CN2CCC(NC(=O)c3ccc(Br)cc3)CC2)cc1,active: 3.7 µM
12,O=c1c(Cl)c(NCCO)cnn1-c1cccc(Cl)c1,inactive
13,CCOC(=O)c1c(C)[nH]c(C)c1C(=O)CSc1nc2ccccc2c(=O)n1-c1ccc(CC)cc1,"inconclusive [inhibitor, single point]"
14,C/C(=N\OCC(=O)Nn1c(C)nc2ccccc2c1=O)c1ccccc1,inactive
15,O=C(NS(=O)(=O)c1ccc(NC(=O)C2CCCO2)cc1)c1ccccc1 (stereo not given),inactive
16,C(/C=C/c1ccco1)=N/N1CCN(c2ccccc2)CC1,inactive
17,CCCCNC(=O)c1ccc(CS(=O)(=O)c2ccc(C)cc2)o1,inactive
18,CCCCn1c(N)c(N(CCOC)C(=O)CC(NC(=O)c2ccccc2)c2ccccc2)c(=O)[nH]c1=O (stereo not given),"inconclusive [inhibitor, partial curve, poor fit]"
19,CCOC(=O)N1CCN(C(=O)C2CC(=O)N(c3ccc(OC)cc3)C2c2ccc(OC)cc2)CC1 (stereo not given),active: 9.28 µM
20,CCc1ccc(OCC(=O)NC2CC(C)(C)NC(C)(C)C2)cc1,"inconclusive [inhibitor, single point]"
